PubChem BioAssay AID1346428 (National Center for Advancing Translational Sciences (NCATS), 2018)
The campaign covered roughly 48,000 compounds. About 1,200 (2.5%) were called active. Inconclusive results (about 2%) are left out.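 Rule for the calls: active = activation of at least 60% and not above a set upper limit (about 1 call in 100 departs from these limits); inconclusive = activation of 40% to 60%, or above that upper limit; inactive = activation under 40%.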 The list shows a part of the results.

The compounds below were run against Probable G-protein coupled receptor 32 (Homo sapiens) (UniProt O75388) (assay: qHTS for Agonists of Human Resolvin D1 Receptor DRV1). Details: CHO-K1 GPR32 beta-arrestin PathHunter luminescence, 90 min; at 76.9 µM; active compounds read high; zero percent set by DMSO-only wells.
In short: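 CHO-K1 cells stably expressing ProLink-tagged GPR32 and Enzyme Activator-tagged beta-arrestin were seeded at 2,500 cells/well overnight, exposed to compounds for 90 min at 37 °C, then read by beta-Gal complementation chemiluminescence after 1 h detection reagent.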
Note: 0% is about no effect.

UniProt O75388, sequence (O75388 whole entry, looked up): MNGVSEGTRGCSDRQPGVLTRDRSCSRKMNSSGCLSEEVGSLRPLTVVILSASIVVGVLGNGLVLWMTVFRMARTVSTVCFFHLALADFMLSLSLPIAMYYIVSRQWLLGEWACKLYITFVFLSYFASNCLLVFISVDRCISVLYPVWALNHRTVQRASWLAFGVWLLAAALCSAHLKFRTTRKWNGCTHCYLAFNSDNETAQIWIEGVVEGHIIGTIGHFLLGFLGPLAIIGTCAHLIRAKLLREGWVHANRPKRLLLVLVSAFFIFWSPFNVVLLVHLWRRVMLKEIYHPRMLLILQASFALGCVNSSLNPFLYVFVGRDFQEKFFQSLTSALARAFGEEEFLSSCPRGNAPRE

SMILES | activation
CCCCOc1ccc(C(=O)N2CCN(CCc3ccncc3)CC2)cc1 | inactive: 24.7%
COC(=O)C1=C(CS(=O)(=O)c2cc(Cl)ccc2OC)NC(=O)NC1c1ccccc1 (centres undefined) | inactive: 37.7%
CC(=O)c1c(C)nc2nc(-c3ccccc3)nn2c1C | inactive: 45.2%
COc1ccccc1N1CCN(C(=O)c2nn(-c3ccc(C)cc3)c(=O)n(C)c2=O)CC1 | inactive: -9.24%
COCCCNC(=O)c1oc2c(c1C)-c1nn(Cc3cccc(Cl)c3)cc1CC2 | inactive: -5.98%
O=C(/C=C/c1ccc(O)cc1)c1ccc(O)cc1O | inactive: -17.6%
CC1Cc2cc(S(=O)(=O)N3CCN(c4ccccc4F)CC3)ccc2N1C(=O)C1CCC1 (centres undefined) | inactive: 6.02%
Cc1cc(F)ccc1S(=O)(=O)NCC(c1ccco1)S(=O)(=O)c1cccs1 (centres undefined) | inactive: -9.01%
CCOC(=O)c1ccc(Nc2c(-c3ccc(O)c(OC)c3)nc3nc[nH]n23)cc1 | inactive: -38.6%
Cc1cc2nnc(SCC(=O)Nc3ccc(F)c(Cl)c3)n2c2ccccc12 | inactive: 48%
C=C(C)CSc1nc2sc3c(c2c(=O)n1-c1ccccc1)CC(C(C)C)OC3 (centres undefined) | inactive: 5.29%
CCC1CN(C(=O)N2CCC(C(=O)NCc3cccc(C)c3)CC2)c2ccccc2O1 (centres undefined) | inactive: -11.7%
CCCCC(CC)CNC(=O)CN1C(=O)CSc2ccc(S(=O)(=O)N3CCOCC3)cc21 (centres undefined) | inactive: -22.9%
O=C(Cn1c(=O)nc(-c2ccccc2F)c2cc(Cl)ccc21)N1CCN(c2ccccc2F)CC1 | inactive: -20.4%
COc1ccc(CNC(=O)c2c3c(nc4ccccc24)C(=O)N(C2CCCCC2)C3)c(OC)c1 | inactive: 7.79%
COC(=O)c1scc(-c2ccc(C)cc2)c1S(=O)(=O)Nc1cc(OC)c(OC)c(OC)c1 | inactive: -5.9%
CCOc1ccccc1N(CC)C(=O)c1cc2c(=O)[nH]c3ccc(C)cc3c2s1 | inactive: -16.9%
Cc1ccc(NC(=O)/C(C#N)=C/c2ccc(C(C)C)cc2)cc1C | inactive: -1.58%
Clc1cccc(-n2ncc3c(N4CCCCC4)ncnc32)c1 | inactive: 31.3%
O=C(Cn1cc(S(=O)(=O)Cc2cccc(Cl)c2)c2ccccc21)NCCc1ccccc1 | inactive: -1.74%
CC(=O)Nc1nonc1-c1nnc(SCC(=O)N(C)c2ccccc2)n1C | inactive: 0.265%
CCN(c1cccc(C)c1)S(=O)(=O)c1ccc2[nH]cc(C(=O)NCCCOC)c(=O)c2c1 | active: 96.5%
COc1ccc(CNC(=O)C(=O)Nc2ccc(OC)cc2OC)cc1 | inactive: -0.113%
CCOC(=O)c1cnc2c(C)c(Cl)ccc2c1NCCc1ccccc1 | inactive: -4.52%
